Laboratory results as given in the supplement of paper PMC4967469.
Lines with a small IC50 respond at low doses; a limit (>, <) means that the fit lies beyond the doses tested. The AUC spans the tested range (256-fold, ending at the top dose) of the same fit; the more sensitive the line, the further below 1. The top dose, if marked as inferred, was calculated from the reported fits.

Compound: C=CC(=O)Nc1cccc(Nc2nc(NC3CCC(N(C)C)CC3)nc3c2ncn3C(C)C)c1 [WZ3105]
Assay: Viability of human cancer cell lines after 72 h of drug (GDSC screen)
Conditions: top dose inferred
Protocol: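 Human cancer cell lines in 384-well plates, medium with 10% serum, drug for 72 h over a 256-fold dose range (nine 2-fold or five 4-fold steps up to the top dose). Adherent lines were fixed and stained with the nucleic acid dye Syto60, suspension lines read with resazurin; signal relative to control wells, capped at 0 and 100%. One two-parameter sigmoid per drug and line, fitted in a mixed model over all curves with the slope shared within a line.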

Cell Line | AUC | IC50 [nM]
H2818 (mesothelioma, adherent, top dose 1.28 µM) | 0.988 | > 1280
H2869 (mesothelioma, adherent, top dose 1.28 µM) | 0.69 | 313
H3118 (head and neck, adherent, top dose 1.28 µM) | 0.778 | 566
H3255 (lung adenocarcinoma, adherent, top dose 1.28 µM) | 0.795 | 724
H-EMC-SS (chondrosarcoma, adherent, top dose 1.28 µM) | 0.865 | > 1280
HA7-RCC (kidney, adherent, top dose 1.28 µM) | 0.953 | > 1280
HAL-01 (lymphoblastic leukaemia, suspension, top dose 1.28 µM) | 0.989 | > 1280
HARA (lung squamous cell carcinoma, adherent, top dose 1.28 µM) | 0.609 | 168
HC-1 (hairy cell leukaemia, suspension, top dose 1.28 µM) | 0.523 | 92.1
HCC38 (breast, adherent, top dose 1.28 µM) | 0.73 | 385
HCC70 (breast, adherent, top dose 1.28 µM) | 0.491 | 75.7
HCC1143 (breast, adherent, top dose 1.28 µM) | 0.657 | 260
HCC1187 (breast, suspension, top dose 1.28 µM) | 0.508 | 84.2
HCC1395 (breast, adherent, top dose 10.24 µM) | 0.886 | > 10200
HCC1419 (breast, adherent, top dose 1.28 µM) | 0.789 | 851
HCC1428 (breast, adherent, top dose 1.28 µM) | 0.757 | 478
HCC1500 (breast, adherent, top dose 1.28 µM) | 0.573 | 127
HCC1569 (breast, adherent, top dose 1.28 µM) | 0.624 | 198
HCC1599 (breast, suspension, top dose 10.24 µM) | 0.24 | 100
HCC1806 (breast, adherent, top dose 1.28 µM) | 0.635 | 182
HCC1937 (breast, adherent, top dose 1.28 µM) | 0.673 | 263

Cell Line | AUC | IC50 [nM]
HCC1954 (breast, adherent, top dose 1.28 µM) | 0.705 | 337
HCC2157 (breast, suspension, top dose 1.28 µM) | 0.334 | 26.9
HCC2218 (breast, suspension, top dose 10.24 µM) | 0.251 | 100
HCC2998 (large intestine, adherent, top dose 10.24 µM) | 0.44 | 442
HCC-15 (lung squamous cell carcinoma, adherent, top dose 1.28 µM) | 0.865 | > 1280
HCC-33 (small cell lung carcinoma, adherent, top dose 1.28 µM) | 0.639 | 195
HCC-44 (lung adenocarcinoma, adherent, top dose 1.28 µM) | 0.699 | 285
HCC-56 (large intestine, adherent, top dose 1.28 µM) | 0.871 | 1260
HCC-78 (lung adenocarcinoma, adherent, top dose 1.28 µM) | 0.729 | 406
HCC-827 (lung adenocarcinoma, adherent, top dose 1.28 µM) | 0.799 | 721
HCE-4 (oesophagus, adherent, top dose 1.28 µM) | 0.986 | > 1280
HCT-15 (large intestine, adherent, top dose 1.28 µM) | 0.987 | > 1280
HCT-116 (large intestine, adherent, top dose 1.28 µM) | 0.668 | 228
HD-MY-Z (Hodgkin lymphoma, adherent, top dose 1.28 µM) | 0.591 | 142
HDLM-2 (Hodgkin lymphoma, suspension, top dose 1.28 µM) | 0.87 | 1160
HDQ-P1 (breast, adherent, top dose 1.28 µM) | 0.949 | > 1280
HEC-1 (endometrium, adherent, top dose 1.28 µM) | 0.984 | > 1280
HEL (acute myeloid leukaemia, semi-adherent, top dose 1.28 µM) | 0.94 | > 1280
HGC-27 (stomach, adherent, top dose 1.28 µM) | 0.762 | 394
HH (T-cell leukaemia, suspension, top dose 1.28 µM) | 0.547 | 112
HL-60 (acute myeloid leukaemia, suspension, top dose 1.28 µM) | 0.578 | 128

Cell Line | AUC | IC50 [nM]
HLE (liver, adherent, top dose 1.28 µM) | 0.964 | > 1280
HMV-II (melanoma, adherent, top dose 1.28 µM) | 0.738 | 452
HN (head and neck, adherent, top dose 1.28 µM) | 0.913 | > 1280
HO-1-N-1 (head and neck, adherent, top dose 1.28 µM) | 0.882 | 1160
HO-1-u-1 (head and neck, adherent, top dose 1.28 µM) | 0.909 | > 1280
HOP-62 (lung adenocarcinoma, adherent, top dose 1.28 µM) | 0.76 | 449
HOP-92 (large cell lung carcinoma, adherent, top dose 1.28 µM) | 0.972 | > 1280
HOS (osteosarcoma, adherent, top dose 1.28 µM) | 0.992 | > 1280
HPAC (pancreas, adherent, top dose 1.28 µM) | 0.726 | 467
HPAF-II (pancreas, adherent, top dose 1.28 µM) | 0.696 | 340
HSC-2 (head and neck, adherent, top dose 1.28 µM) | 0.853 | 886
HSC-3 (head and neck, adherent, top dose 1.28 µM) | 0.891 | 1120
HSC-4 (head and neck, adherent, top dose 1.28 µM) | 0.864 | > 1280
HSC-39 (stomach, suspension, top dose 1.28 µM) | 0.908 | > 1280
HT55 (large intestine, adherent, top dose 1.28 µM) | 0.972 | > 1280
HT (B-cell lymphoma, suspension, top dose 1.28 µM) | 0.64 | 188
HT-3 (cervix, adherent, top dose 1.28 µM) | 0.839 | 891
HT-29 (large intestine, adherent, top dose 1.28 µM) | 0.752 | 425
HT-115 (large intestine, adherent, top dose 1.28 µM) | 0.98 | > 1280
HT-144 (melanoma, adherent, top dose 1.28 µM) | 0.981 | > 1280
HT-1080 (fibrosarcoma, adherent, top dose 1.28 µM) | 0.969 | > 1280

Cell Line | AUC | IC50 [nM]
HT-1197 (bladder, adherent, top dose 1.28 µM) | 0.971 | > 1280
HT-1376 (bladder, adherent, top dose 1.28 µM) | 0.985 | > 1280
HTC-C3 (thyroid, adherent, top dose 1.28 µM) | 0.946 | > 1280
HUTU-80 (digestive system, adherent, top dose 1.28 µM) | 0.781 | 438
HeLa (cervix, adherent, top dose 1.28 µM) | 0.977 | > 1280
Hep 3B2_1-7 (liver, adherent, top dose 1.28 µM) | 0.977 | > 1280
Hey (ovary, adherent, top dose 1.28 µM) | 0.82 | 683
Hs633T (fibrosarcoma, adherent, top dose 1.28 µM) | 0.989 | > 1280
Hs683 (glioma, adherent, top dose 1.28 µM) | 0.908 | > 1280
Hs746T (stomach, adherent, top dose 1.28 µM) | 0.699 | 357
Hs766T (pancreas, adherent, top dose 1.28 µM) | 0.983 | > 1280
Hs939-T (melanoma, adherent, top dose 1.28 µM) | 0.968 | > 1280
Hs940-T (melanoma, adherent, top dose 1.28 µM) | 0.911 | > 1280
Hs-445 (Hodgkin lymphoma, suspension, top dose 1.28 µM) | 0.66 | 214
Hs-578-T (breast, adherent, top dose 1.28 µM) | 0.986 | > 1280
HuCCT1 (biliary tract, adherent, top dose 1.28 µM) | 0.836 | 987
HuH-7 (liver, adherent, top dose 1.28 µM) | 0.97 | > 1280
HuO9 (osteosarcoma, adherent, top dose 1.28 µM) | 0.753 | 471
